From PubChem BioAssay AID1159614 (National Center for Advancing Translational Sciences (NCATS), 2016)
The whole screen tested about 45,000 compounds, of which about 65 (0.1%) were called active. Calls follow the shape of the dose curve; as a rule, active = well fitted activation curve with a large enough effect; inconclusive = small, poorly fitted or top-dose-only effect; inactive = no such curve, though single readings can be large or run the other way. Some of the results follow.

These molecules were tested against Galactocerebrosidase (Homo sapiens) (UniProt P54803) (assay: A Novel Cell-Based Assay to Identify Small Molecules for B -Galactocerebrosidase). Conditions: 145M-Twi-hGALC-G270D cells (Twitcher mouse brain line with human GALC G270D), HMU-beta-Gal fluorescence, 48 h; series mostly up to 57.5 µM; activation: at the top concentration.
UniProt P54803, sequence (P54803 whole entry, looked up): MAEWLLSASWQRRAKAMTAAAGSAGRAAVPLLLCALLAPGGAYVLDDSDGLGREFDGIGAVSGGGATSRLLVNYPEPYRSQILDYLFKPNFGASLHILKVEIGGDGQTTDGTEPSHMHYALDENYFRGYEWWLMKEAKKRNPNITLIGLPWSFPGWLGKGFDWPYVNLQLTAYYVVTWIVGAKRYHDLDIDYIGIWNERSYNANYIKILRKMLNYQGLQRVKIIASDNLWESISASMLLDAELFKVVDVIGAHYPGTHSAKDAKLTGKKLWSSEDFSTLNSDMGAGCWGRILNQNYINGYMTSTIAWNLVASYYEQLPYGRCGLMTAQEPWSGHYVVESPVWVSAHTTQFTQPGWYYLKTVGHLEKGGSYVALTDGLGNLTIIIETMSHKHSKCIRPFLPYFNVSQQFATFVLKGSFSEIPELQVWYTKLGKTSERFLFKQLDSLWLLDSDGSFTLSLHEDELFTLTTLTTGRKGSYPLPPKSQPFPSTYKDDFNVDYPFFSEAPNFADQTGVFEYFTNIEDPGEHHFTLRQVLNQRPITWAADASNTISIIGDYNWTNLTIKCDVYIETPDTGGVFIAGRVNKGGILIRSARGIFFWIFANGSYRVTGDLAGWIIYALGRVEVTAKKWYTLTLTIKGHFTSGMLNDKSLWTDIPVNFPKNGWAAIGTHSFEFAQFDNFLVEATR
In short: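 Live 145M-Twi cells (Twitcher mouse brain-derived, GALC-null) stably expressing human GALC-G270D, with a wild-type GALC line, were compound-treated. Residual GALC activity was then read as fluorescence from 0.1 mM final HMU-β-gal at pH 5.2; higher signal means activation.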
Also: 0% is about no effect; nearly all actives have a fitted effect of over 65% in size.

| Compound | activation |
| --- | --- |
| CCOc1cc(C#N)c(-n2nnc3c(sc4nc(C)cc(C)c43)c2=O)cc1OCC | inactive: -21.6% |
| CCCCN(C)C(=O)c1ccc2c(c1)N(Cc1cccc(F)c1)C(=O)c1ccccc1S2 | inactive: 0.839% |
| NS(=O)(=O)c1ccc(C(=O)O)cc1 | inactive: -7.83% |
| CCOC(=O)c1scc(-c2ccc(C)cc2)c1S(=O)(=O)Nc1cc(OC)ccc1OC | inactive: -9.04% |
| CCc1cccc(C)c1NC(=O)C1CCCN1S(=O)(=O)c1cccc2nsnc12 (stereo unspecified) | inactive: -18.8% |
| COC(=O)c1ccc(NC(=O)Cn2cnc3c2c(=O)n(C)c(=O)n3C)cc1 | inactive: -20.1% |
| O=C(Cn1c(=O)c2cccn2c2ccccc21)NCc1ccccc1F | inactive: -7.54% |
| Cc1cccc(N(CC(=O)NCCSCc2ccccc2)S(=O)(=O)c2ccccc2)c1C | inactive: -11.8% |
| Cc1ccc(C(=O)c2cn(Cc3ccccc3)c3nc(C)ccc3c2=O)cc1 | inactive: -8.75% |
| Cc1nc(N2CCCC2)c2c(C(=O)N3CCN(c4cc(Cl)ccc4C)CC3)c(C)oc2n1 | inactive: -34.9% |
| CCn1c(=O)c(=O)n(CC)c2cc(S(=O)(=O)Nc3ccc(C)cc3)ccc21 | inactive: -12.2% |
| CCCC(=O)N1CCN(c2nc3ccc(F)cc3s2)CC1 | inactive: -20.4% |
| Cc1cccc(-c2nc(S(=O)(=O)c3ccc(F)cc3)c(N3CCN(c4ccccc4)CC3)o2)c1 | inactive: -10.2% |
| CC(C)c1ccc(NC(=O)c2cc3c(s2)-c2ccccc2SC3)cc1 | inactive: -8.24% |
| Cc1ccc(CCNC(=O)c2ccc3c(c2)N(Cc2cccc(C)c2)C(=O)c2ccccc2S3(=O)=O)cc1 | inactive: -0.0483% |
| CCOC(=O)c1ccccc1NC(=O)Cn1cc(C(=O)c2cccc(OC)c2)c(=O)c2ccc(C)nc21 | inactive: 2.69% |
| CCOC(=O)c1c(C)[nH]c(CCC(=O)NCCCN2CCN(c3ccc(F)cc3)CC2)c1C | inactive: -13.6% |
| CCCCCCCCCCCCCCCC[N+](C)(C)CCN(Cc1ccc(OC)cc1)c1ncccn1 | inactive: -11.2% |
| CCc1ccc(N=C2NC(=O)CC(C(=O)Nc3ccc(OC)cc3)S2)cc1 (stereo unspecified) | inactive: -20% |
| COc1cc2c(cc1OC)C(COc1ccccc1OC)N(C(=O)CC(C)C)CC2 (stereo unspecified) | inactive: -13.7% |
| Cc1cc(=O)[nH]c2nnc(SCC(=O)NC(C)(C)C)n12 | inactive: -15.1% |
| O=C(CN1C(=O)COc2ccc(S(=O)(=O)N3CCCCCC3)cc21)NCc1ccc(Cl)cc1 | inactive: -14.1% |
| CC(=O)N1CCc2cc(CNS(=O)(=O)c3ccc(F)cc3)ccc21 | inactive: -8.04% |
| CCc1c(C)sc2c1CCN(Cc1cccc(F)c1)C2c1ccccc1 (stereo unspecified) | inactive: -5.64% |

| Compound | activation |
| --- | --- |
| O=C(NCc1cccc(Cl)c1)c1cc2c(s1)-c1ccccc1OC2 | inactive: -25.1% |
| CCc1ccc(-c2cn3c(n2)sc2cc(C(=O)NC4CCCCCC4)ccc23)cc1 | inactive: -21.4% |
| COc1ccc(Cl)cc1Nc1sc(C(=O)c2ccccc2)c(N)c1C(=O)Nc1ccccc1 | inactive: -11.8% |
| CC(=O)Nc1ccc(C(=O)CSc2nnc(-c3ccccc3)n2-c2ccccc2)cc1 | inactive: -4.64% |
| Cc1ccc(NC2=C(c3ccc(C(F)(F)F)cc3)C(=O)c3ccccc32)cc1C | inactive: -15% |
| Cc1ccc(S(=O)(=O)c2nc(-c3ccccc3F)oc2N2CCCCC2)cc1 | inactive: -20.1% |
| Cc1ccc(-c2cc(C(=O)NCc3cnn(C)c3C)c3cc(Br)ccc3n2)cc1 | inactive: -14.2% |
| COCCc1nn2c(=O)cc(COC(=O)c3ccc4c(c3)OCO4)nc2s1 | inactive: -10.7% |
| COc1ccc(CCN2C(=O)c3oc4cc(C)cc(C)c4c(=O)c3C2c2ccc(F)cc2)cc1OC (stereo unspecified) | inactive: 0.353% |
| COc1ccccc1N1CCN(C(=O)c2ccc(CS(=O)c3ccccc3C)o2)CC1 (stereo unspecified) | inactive: -7.93% |
| O=C(NC1CC1)c1ccc(Cn2c(SCc3cccc(F)c3)nc3cccnc32)cc1 | inactive: 1.05% |
| O=C(Nc1ccc(Cl)cc1)C1CCN(c2nc3ccccc3nc2C(F)(F)F)CC1 | inactive: -2.03% |
| O=C(NCC(c1cccnc1)N1CCc2ccccc2C1)c1ccc(F)c(F)c1 (stereo unspecified) | inactive: -10.2% |
| O=C(O)P(=O)(O)O | inactive: -9.37% |
| CCC(CC)C(=O)Nc1ccc(OCc2cc(=O)n3c4c(sc3n2)CCCC4)cc1 | inactive: -11.2% |
| CCS(=O)(=O)N1CCc2cc(C(=O)NCc3ccc(OC)cc3)ccc21 | inactive: -14.5% |
| Cn1cc(S(=O)(=O)c2cccc(Cl)c2)c(=O)c2cc(F)c(N3CCCCCC3)cc21 | inactive: -15.9% |
| CCOc1ccc(NC(=O)c2ccc3c(SCC(=O)O)c4c(nc3c2)CCCC4)cc1 | inactive: -26% |
| Cc1ccc(C)c(N2CCN(C(=O)C3CCN(c4nc(-c5ccc(C(C)C)cc5)no4)CC3)CC2)c1 | inactive: -6.07% |
| Cc1ccc(C(=O)N2CCc3cc(CNS(=O)(=O)c4ccc(Cl)s4)ccc32)cc1 | inactive: -6.87% |
| CCOc1ccc(C2CC(=O)n3nc(-c4ccc(C)cc4)nc3S2)cc1OC (stereo unspecified) | inactive: -13.6% |
| Fc1ccc(-c2nc(Nc3ccc(F)c(Cl)c3)nc3c2COc2ccccc2-3)cc1 | inactive: -11.3% |
| CC(C(=O)Nc1cccc(C#N)c1)n1nc(-c2ccccc2)c2c(c1=O)CCCC2 (stereo unspecified) | inactive: -14.5% |
| CCOC(=O)C1CCCN(C(=O)c2ccc3c(c2)N(Cc2ccccc2)C(=O)c2ccccc2S3(=O)=O)C1 (stereo unspecified) | inactive: -9.49% |

| Compound | activation |
| --- | --- |
| CC1=C(C(=O)Nc2ccc(C)cc2C)C(c2ccccc2[N+](=O)[O-])n2ncc(C(=O)Nc3ccccc3)c2N1 (stereo unspecified) | inactive: -2.94% |
| O=C(Nc1ccc(NC(=O)c2cc3ccccc3o2)cc1)c1ccccc1 | inactive: -34% |
| Cn1cc(S(=O)(=O)c2ccc(Cl)cc2)c(=O)c2cc(F)c(N3CCCCCC3)cc21 | inactive: -15.1% |
| O=C(CN1CCN(S(=O)(=O)c2cc(Cl)ccc2Cl)CC1)Nc1cccc(F)c1 | inactive: -36.7% |
| CCOc1ccc(N2CC(c3nc4ccccc4n3Cc3cccc(Cl)c3)CC2=O)cc1 (stereo unspecified) | inactive: -8.29% |
| Cc1nn(CCCC(=O)NCc2ccc(F)cc2)c(=O)c2c1sc1ccccc12 | inactive: -6.89% |
| Cc1c2cnn(CC(=O)N3CCN(c4ccc(F)cc4)CC3)c(=O)c2c(C)n1Cc1ccc(F)cc1 | inactive: -27.6% |
| Cc1cc(C)cc(C(=O)Nc2ccc(-c3nc4ncccc4o3)cc2)c1 | inactive: -16.9% |
| O=C(NCc1ccc(Cl)cc1)c1cc(S(=O)(=O)N2CCCCC2)c[nH]1 | inactive: -9.43% |
| CCOc1ccc2nc(NC(=O)c3cc(=O)c4ccc(C)cc4o3)sc2c1 | inactive: -14.8% |
| CCN1CCSc2ccc(C(=O)NC(C)c3ccccc3)cc21 (stereo unspecified) | inactive: -0.778% |
| Cc1ccc(CNC(=O)Cn2nc(C)n3cccc3c2=O)cc1 | inactive: -15% |
| Cc1ccc(-n2ncc(C(=O)N3CCN(c4cccc(C)c4)C(C)C3)c2C2CCN(C(=O)OC(C)(C)C)CC2)cc1 (stereo unspecified) | inactive: 10.7% |
| COc1ccccc1CNC(=O)CCn1c(=O)c2ccccc2n(CC(=O)Nc2cccc(Cl)c2)c1=O | inactive: -8.25% |
| CCOC(=O)c1cc(-c2ccccc2)n(-c2cccc(C(=O)Nc3ccc(F)c(F)c3)c2)c1C | inactive: -9.94% |
| COc1c(C)cc(S(=O)(=O)NCCc2c(C)[nH]c3ccccc23)c(C)c1C | inactive: -9.84% |
| COc1ccc(OC)c(NC(=O)C2CCCN(S(=O)(=O)c3c(C)nn(C)c3C)C2)c1 (stereo unspecified) | inactive: -2.42% |
| Cc1ccc(NC(=O)c2cnn3c(C(F)F)cc(-c4ccccc4)nc23)c(C)c1 | inactive: -7.01% |
| Cc1ccc(NC(=O)Nc2nnc(N(CC(C)C)CC(C)C)s2)cc1Cl | inactive: -14.7% |
| CCN(CC)CCCC(C)Nc1c2ccc(Cl)cc2nc2ccc(OC)cc12 (stereo unspecified) | inactive: -13.6% |
| CCOc1ccc(-c2cc(NC(=O)Nc3cccc(C(C)=O)c3)c(C(=O)OC)s2)cc1 | inactive: -9.18% |
| CCOc1ccc(S(=O)(=O)NCC(c2ccco2)S(=O)(=O)c2cccs2)cc1 (stereo unspecified) | inactive: -5.3% |
| CCOC(=O)c1ccc(NC(=O)CCCc2nc(-c3ccccc3Cl)no2)cc1 | inactive: -14.6% |
| COc1ccc(NC(=O)C2=C(C)Nc3ncnn3C2c2ccc(O)cc2)cc1 (stereo unspecified) | inactive: 3.63% |

| Compound | activation |
| --- | --- |
| CCOC(=O)CSc1nc2ccc(NC(=O)c3ccc(C)cc3)cc2s1 | inactive: 3.8% |
| COc1cccc(N2CCN(C(=O)C(CCSC)NS(=O)(=O)c3ccc4c(c3)oc(=O)n4C)CC2)c1 (stereo unspecified) | inactive: 4.08% |
| CCc1ccc(CNC(=O)Cc2ccc(NC(=O)N3CCSc4ncccc43)cc2)cc1 | inactive: -16% |
| O=C(O)c1ccc2c(c1)ncn2-c1ccc(F)c(F)c1 | inactive: -3.01% |
| CCOc1ccc(-c2nonc2NC(=O)c2oc3cc(C)ccc3c2C)cc1 | inactive: -4.92% |
| CCCCSCCCNC(=O)CN1C(=O)c2cccnc2Oc2ccc(Cl)cc21 | inactive: -3.57% |
| COc1ccc(OC)c(NC(=O)c2cc3c(=O)oc4ccccc4c3s2)c1 | inactive: -7.94% |
| Cc1cc2c(cc1S(=O)(=O)NCc1ccccc1Cl)OCCN2C | inactive: -5.4% |
| Cc1ccc(C)c(NC(=O)c2ccc3c(O)c(S(=O)(=O)c4ccc(Cl)cc4)c(=O)[nH]c3c2)c1 | inactive: -15.4% |
| CCN(CC)c1nn2c(=O)c(C(=O)NCCc3ccccc3)cnc2s1 | inactive: -13% |
| COc1ccc(S(=O)(=O)N2CCN(c3ccccc3F)CC2)cc1-c1noc(C)n1 | inactive: -18.5% |
| Fc1ccc(-c2noc3ncnc(N4CCN(c5ccccc5)CC4)c23)cc1 | inactive: -22.5% |
| O=C(NCc1ccc(F)cc1)c1ccc2c(Cl)c3c(nc2c1)CCCC3 | inactive: -18.5% |
| COc1ccc(OC)c(NC(=O)Cc2coc3ccc(C(C)C)cc23)c1 | inactive: -22.1% |
| CCOC(=O)c1[nH]c(C)c(CCC(=O)NCc2ccccc2)c1C | inactive: -19.1% |
| Cc1cc(C)cc(NC(=O)N2CCC(N3CCCCC3)CC2)c1 | inactive: -12.4% |
| CCOC(=O)c1c(-c2ccccc2)oc2ccc(N(C(C)=O)S(=O)(=O)c3cc(C)ccc3C)cc12 | inactive: -5.69% |
| CCc1cccc(-n2c(C)nc3c(cnn3-c3ccc(Cl)cc3)c2=O)c1 | inactive: -6.15% |
| CCOC(=O)c1ccccc1NC(=O)C(=O)Nc1ccc2nc3n(c(=O)c2c1)CCCCC3 | inactive: -13.8% |
| CC(=O)N1CCOc2cc(S(=O)(=O)Nc3cccc(C(F)(F)F)c3)c(Cl)cc21 | inactive: -24% |
| Cc1cn2c(=O)cc(COc3cccc(NC(=O)c4ccccc4C)c3)nc2s1 | inactive: -4.57% |
| COc1ccc(NC(=O)C2CCN(S(=O)(=O)c3ccc4[nH]c(=O)ccc4c3)CC2)c(OC)c1 | inactive: -13.6% |
| CCOc1ccc(CNC(=O)C2CCN(c3nnc(-n4cccc4CNc4ccc(C)cc4)s3)CC2)cc1OC | inactive: -7.6% |
| CCc1c(C)nc(SCC(=O)N2CCN(c3ccccc3OC)CC2)[nH]c1=O | inactive: -18.5% |
